Assay results reported in patent US20160251438A1 (LUDWIG INSTITUTE FOR CANCER RESEARCH, published 2016).

Biological target: T1, human GARP (human, UniProt Q14392 20-662)
T1 construct: also called hGARP; free GARP
T1 sequence: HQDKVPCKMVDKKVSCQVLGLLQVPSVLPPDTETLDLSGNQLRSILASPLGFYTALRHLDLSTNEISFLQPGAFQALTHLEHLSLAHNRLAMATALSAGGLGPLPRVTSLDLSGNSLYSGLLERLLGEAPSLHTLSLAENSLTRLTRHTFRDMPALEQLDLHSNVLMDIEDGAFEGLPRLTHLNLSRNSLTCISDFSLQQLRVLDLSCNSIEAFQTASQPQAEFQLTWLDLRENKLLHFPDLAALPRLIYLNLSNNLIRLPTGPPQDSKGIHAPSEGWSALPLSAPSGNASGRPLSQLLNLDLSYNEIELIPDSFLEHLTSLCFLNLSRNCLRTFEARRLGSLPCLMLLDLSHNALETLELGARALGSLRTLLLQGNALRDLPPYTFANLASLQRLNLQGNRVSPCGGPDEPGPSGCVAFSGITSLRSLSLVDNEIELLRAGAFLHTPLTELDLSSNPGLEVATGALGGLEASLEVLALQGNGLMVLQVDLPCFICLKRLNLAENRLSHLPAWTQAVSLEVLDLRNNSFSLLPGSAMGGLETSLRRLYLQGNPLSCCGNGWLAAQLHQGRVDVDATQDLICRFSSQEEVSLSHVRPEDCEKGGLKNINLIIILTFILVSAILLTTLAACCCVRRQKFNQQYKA
Experiment: FACS with anti-mLAP on BW+hGARP

B1: murine TGF-β1 (ligand)
chain: not shown
notes: also called mTGF-β1
**Q.** Does B1 bind?
**A.** binds
